Among the targets are GFP-PLK1 (human) (UniProt P53350); GFP-CPAP (human) (UniProt Q9HC77); GFP-CETN2 (human) (UniProt P41208); GFP-CP110 (human) (UniProt O43303).
What all share (experiment): co-IP; HEK293T cells co-transfected with two tagged plasmids, collected after 24 h; lysed in ELB buffer (50 mM HEPES, 250 mM NaCl, 0.1% NP-40); IP with anti-GFP, anti-FLAG or anti-MYC antibody and Dynabeads-protein-G at 4 °C; immunoblot for the tags
Assay [1] addresses T1, MYC-CENTLEIN 971–1396aa (not stated (human or mouse cDNA cloned)) (UniProt A2AM05).
T1 sequence: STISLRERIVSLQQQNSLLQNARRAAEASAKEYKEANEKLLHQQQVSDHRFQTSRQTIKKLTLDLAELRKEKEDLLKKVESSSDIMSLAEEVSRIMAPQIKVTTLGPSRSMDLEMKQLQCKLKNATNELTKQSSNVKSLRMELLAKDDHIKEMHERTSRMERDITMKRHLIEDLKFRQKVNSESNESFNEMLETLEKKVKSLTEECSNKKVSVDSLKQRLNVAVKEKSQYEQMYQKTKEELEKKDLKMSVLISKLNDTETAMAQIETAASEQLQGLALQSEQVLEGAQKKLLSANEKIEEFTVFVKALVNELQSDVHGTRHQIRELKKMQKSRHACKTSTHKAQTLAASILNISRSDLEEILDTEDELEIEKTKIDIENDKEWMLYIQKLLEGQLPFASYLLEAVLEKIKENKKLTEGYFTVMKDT

The chains behind the UniProt entries cited, without tags or fusion partners.
UniProt P53350: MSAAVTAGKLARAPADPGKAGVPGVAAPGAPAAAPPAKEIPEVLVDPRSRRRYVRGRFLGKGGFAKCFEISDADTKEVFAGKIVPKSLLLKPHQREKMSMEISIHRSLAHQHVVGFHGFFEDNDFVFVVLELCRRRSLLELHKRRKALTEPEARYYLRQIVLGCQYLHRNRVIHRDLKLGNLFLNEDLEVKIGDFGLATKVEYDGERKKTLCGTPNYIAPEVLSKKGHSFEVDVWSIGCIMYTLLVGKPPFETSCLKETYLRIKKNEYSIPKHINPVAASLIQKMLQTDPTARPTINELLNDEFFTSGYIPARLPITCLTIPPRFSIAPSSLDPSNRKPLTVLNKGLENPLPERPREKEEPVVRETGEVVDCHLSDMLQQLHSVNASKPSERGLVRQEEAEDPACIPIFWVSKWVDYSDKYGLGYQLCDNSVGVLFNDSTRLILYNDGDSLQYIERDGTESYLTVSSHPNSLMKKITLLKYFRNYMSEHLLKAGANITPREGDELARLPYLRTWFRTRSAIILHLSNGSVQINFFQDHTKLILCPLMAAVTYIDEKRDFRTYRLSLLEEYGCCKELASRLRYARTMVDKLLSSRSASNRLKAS
UniProt Q9HC77: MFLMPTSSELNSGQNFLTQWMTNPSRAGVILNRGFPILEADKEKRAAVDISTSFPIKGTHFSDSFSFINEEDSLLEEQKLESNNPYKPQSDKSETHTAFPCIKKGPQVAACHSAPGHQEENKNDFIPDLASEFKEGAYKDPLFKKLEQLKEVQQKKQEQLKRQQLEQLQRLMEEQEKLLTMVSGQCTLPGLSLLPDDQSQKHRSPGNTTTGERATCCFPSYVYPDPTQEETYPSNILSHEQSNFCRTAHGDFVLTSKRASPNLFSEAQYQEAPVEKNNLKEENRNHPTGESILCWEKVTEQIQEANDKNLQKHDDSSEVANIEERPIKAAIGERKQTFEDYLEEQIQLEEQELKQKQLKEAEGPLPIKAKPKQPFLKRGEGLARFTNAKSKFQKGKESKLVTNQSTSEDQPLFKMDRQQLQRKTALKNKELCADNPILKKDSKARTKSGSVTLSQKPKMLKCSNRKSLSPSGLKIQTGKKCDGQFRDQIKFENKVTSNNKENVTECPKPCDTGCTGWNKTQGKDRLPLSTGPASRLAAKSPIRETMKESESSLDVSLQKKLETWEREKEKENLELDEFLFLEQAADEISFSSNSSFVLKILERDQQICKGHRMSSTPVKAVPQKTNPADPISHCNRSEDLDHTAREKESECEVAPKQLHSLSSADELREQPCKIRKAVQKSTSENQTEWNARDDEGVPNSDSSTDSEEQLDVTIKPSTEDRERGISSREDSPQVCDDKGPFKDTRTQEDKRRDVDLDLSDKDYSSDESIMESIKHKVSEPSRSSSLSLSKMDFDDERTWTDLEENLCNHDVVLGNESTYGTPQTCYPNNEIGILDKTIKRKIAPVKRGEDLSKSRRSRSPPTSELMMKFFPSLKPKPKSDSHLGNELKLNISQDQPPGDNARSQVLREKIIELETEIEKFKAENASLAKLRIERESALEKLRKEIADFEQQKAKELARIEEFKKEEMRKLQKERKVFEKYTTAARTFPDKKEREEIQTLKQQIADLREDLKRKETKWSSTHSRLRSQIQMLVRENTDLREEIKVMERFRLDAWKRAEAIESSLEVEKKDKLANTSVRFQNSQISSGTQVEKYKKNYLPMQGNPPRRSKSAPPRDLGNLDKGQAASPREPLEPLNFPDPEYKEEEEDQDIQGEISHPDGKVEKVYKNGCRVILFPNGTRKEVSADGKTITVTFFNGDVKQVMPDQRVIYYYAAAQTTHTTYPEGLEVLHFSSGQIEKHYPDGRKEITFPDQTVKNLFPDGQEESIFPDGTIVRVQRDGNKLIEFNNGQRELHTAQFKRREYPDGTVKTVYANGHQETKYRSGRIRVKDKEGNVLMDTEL
UniProt P41208: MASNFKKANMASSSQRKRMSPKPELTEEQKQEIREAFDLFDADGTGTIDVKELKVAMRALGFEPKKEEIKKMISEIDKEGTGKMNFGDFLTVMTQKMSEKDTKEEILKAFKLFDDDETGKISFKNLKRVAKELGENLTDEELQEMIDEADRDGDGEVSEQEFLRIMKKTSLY
UniProt O43303: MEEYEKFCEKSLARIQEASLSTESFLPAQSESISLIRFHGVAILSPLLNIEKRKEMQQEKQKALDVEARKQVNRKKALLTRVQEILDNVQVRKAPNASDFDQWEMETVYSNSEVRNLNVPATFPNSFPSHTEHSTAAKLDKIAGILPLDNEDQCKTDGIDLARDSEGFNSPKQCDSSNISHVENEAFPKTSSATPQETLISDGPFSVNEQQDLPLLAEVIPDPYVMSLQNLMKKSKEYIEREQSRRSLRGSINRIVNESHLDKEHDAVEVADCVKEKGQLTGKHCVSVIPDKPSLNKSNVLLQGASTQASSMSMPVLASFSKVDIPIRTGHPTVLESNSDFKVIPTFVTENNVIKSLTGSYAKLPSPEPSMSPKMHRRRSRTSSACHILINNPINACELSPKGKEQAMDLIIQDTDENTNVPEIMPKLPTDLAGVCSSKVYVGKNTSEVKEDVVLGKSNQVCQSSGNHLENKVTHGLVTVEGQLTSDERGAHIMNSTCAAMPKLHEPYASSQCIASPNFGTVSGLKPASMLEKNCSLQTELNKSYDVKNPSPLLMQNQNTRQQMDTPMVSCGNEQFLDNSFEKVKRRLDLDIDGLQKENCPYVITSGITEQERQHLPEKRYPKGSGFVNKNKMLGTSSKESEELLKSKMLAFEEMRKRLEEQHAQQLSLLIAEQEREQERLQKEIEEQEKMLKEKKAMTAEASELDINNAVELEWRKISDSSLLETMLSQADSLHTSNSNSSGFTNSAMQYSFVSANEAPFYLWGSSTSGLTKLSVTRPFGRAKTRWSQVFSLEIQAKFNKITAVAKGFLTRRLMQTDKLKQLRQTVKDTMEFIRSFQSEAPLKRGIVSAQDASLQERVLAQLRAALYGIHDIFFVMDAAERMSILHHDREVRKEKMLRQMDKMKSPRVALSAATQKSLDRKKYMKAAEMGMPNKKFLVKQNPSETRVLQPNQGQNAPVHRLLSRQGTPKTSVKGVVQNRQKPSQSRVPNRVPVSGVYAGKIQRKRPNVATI

A further assay has as its target T2, GFP-BBS4 (human) (UniProt Q96RK4).
T2 sequence: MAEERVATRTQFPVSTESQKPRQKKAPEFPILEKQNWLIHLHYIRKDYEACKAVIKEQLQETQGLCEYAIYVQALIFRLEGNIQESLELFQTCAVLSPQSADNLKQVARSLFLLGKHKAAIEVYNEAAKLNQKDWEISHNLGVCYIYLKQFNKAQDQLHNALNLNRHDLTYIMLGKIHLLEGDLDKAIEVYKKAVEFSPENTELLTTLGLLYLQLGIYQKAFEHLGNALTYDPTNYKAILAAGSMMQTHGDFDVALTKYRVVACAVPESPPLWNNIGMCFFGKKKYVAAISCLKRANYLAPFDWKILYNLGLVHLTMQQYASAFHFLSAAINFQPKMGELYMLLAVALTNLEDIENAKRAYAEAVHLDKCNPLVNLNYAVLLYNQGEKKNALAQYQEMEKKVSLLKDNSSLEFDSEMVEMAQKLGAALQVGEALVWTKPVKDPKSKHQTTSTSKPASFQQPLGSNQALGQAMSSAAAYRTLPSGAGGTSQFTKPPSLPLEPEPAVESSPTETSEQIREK

The next assay deals with T3, GFP-NEK2A (human) (UniProt P51955).
T3 sequence: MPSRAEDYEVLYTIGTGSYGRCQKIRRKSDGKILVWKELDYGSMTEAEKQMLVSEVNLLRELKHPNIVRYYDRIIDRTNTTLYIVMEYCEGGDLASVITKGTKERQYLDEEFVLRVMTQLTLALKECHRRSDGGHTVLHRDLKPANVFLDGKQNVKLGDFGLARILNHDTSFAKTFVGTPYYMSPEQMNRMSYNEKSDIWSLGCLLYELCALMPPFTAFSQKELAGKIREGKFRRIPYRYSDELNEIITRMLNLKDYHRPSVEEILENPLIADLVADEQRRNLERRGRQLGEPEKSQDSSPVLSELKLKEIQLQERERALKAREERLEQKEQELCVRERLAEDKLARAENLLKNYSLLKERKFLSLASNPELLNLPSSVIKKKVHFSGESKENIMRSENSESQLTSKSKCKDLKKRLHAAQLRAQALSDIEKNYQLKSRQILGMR

In another assay the target is T4, GFP-CEP68 (human) (UniProt Q76N32).
T4 sequence: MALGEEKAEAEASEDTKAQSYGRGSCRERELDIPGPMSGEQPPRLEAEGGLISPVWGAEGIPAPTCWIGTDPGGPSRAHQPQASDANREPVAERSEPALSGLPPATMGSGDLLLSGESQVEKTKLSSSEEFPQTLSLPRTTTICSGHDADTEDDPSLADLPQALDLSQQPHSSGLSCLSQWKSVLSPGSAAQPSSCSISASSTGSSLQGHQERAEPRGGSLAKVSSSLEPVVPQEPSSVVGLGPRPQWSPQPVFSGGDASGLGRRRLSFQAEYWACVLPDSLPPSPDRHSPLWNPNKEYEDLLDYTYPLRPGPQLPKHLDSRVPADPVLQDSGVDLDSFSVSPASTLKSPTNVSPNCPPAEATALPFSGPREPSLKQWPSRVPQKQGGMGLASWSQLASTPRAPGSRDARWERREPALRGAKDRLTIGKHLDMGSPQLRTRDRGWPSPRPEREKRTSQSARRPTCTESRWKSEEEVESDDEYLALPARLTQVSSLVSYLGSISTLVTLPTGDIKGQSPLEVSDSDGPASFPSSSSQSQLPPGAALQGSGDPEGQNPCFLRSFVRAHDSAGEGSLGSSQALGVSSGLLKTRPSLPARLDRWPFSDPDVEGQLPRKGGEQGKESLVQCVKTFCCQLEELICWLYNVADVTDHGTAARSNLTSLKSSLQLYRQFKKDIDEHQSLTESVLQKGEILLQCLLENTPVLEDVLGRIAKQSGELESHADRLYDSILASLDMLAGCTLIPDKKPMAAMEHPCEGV

These are yes or no findings as the source states them, for the method shown. Binding seen in cells or lysates may run through a third protein. Some entries that bind do so weakly or less than the wild type. Where a sequence is shown, tags or fusion partners need not be part of it.

B1: FLAG-tagged SUN5 (protein, UniProt Q9DA32 1-373)
chain: MPRTRNIGALCTLPEDTTHSGRPRRGVQRSYISRMAEPAPANMNDPLLLPLRMNTPGLSLVQILLGYMSWLTYLACFLRTQTQQVFLNTCRCKLFCQKVMEKMGLLVLCVFGFWMFSMHLPSKVEVWQDDSINGPLQSLRMYQEKVRHHTGEIQDLRGSMNQLIAKLQKMEAISDEQKMAQKIMKMIQGDYIEKPDFALKSIGASIDFEHTSATYNHDKARSYWNWIRLWNYAQPPDVILEPNVTPGNCWAFASDRGQVTIRLAQKVYLSNITLQHIPKTISLSGSPDTAPKDIVIYGLESLPREEVFLGAFQFQPENVIQMFQLQNLPPRSFAAVKVKISSNWGNPRFTCMYRVRVHGSVTPPKDSHLEPLS
With B1, the binding result in assay [1] was “binds”; with GFP-PLK1 (human), “no binding”; with GFP-BBS4 (human) it was “no binding”; in the assay with GFP-NEK2A (human) it was “no binding”; with GFP-CPAP (human), “no binding”; with GFP-CETN2 (human), “no binding”. Further, the binding result with GFP-CEP68 (human) and with GFP-CP110 (human) was “no binding” in each case.

For the origin of these results see paper PMC8363609.
